Test results from article PMC8761492 (Life Science Alliance, 2022).
Starred links: 1 amine or outer side, 2 acyl side, 3 side chain; linkers in the order of their positions; H or OH if unused. Positions of bridges follow the written chain, without caps; N, C: chain ends. Non-standard residues stand in square brackets, D forms with d. Residues, ends and D or L forms follow the SMILES beside them. *: point of attachment. X1 = CC[C@H](C)[C@@H](N[*:1])[C@@H](O)CC(=O)O[C@H](C(=O)[C@H](C)C(=O)[*:2])C(C)C; NMeY = CN[C@@H](Cc1ccc(O)cc1)C(=O)O; dNMeL = CN[C@H](CC(C)C)C(=O)O; Pyruvoyl = CC(=O)C(=O)*

Assay: Tissue distribution of total radioactivity after single IV bolus of [14C]plitidepsin
Type: in vivo, Sprague–Dawley rats
Conditions: rat, 0.2 mg/kg i.v. bolus
Experimental: An in vivo distribution study was carried out in rats. PM140064 (14C1-Plitidepsin) was supplied by PharmaMar at a radiochemical purity of 95% or greater, with no single impurity 3% or greater. The study was conducted at Aptuit Srl ([54]).
24 male and 24 female Sprague–Dawley rats each received a single IV bolus administration of [14C] Plitidepsin at a target dose of 0.2 mg/kg. After administration, three animals per time-point (0.25, 1, 2, 4, 8, 24, 48, and 72 h post-dose) were exsanguinated from the abdominal aorta and blood retained. Actual times of bleeding were recorded. In addition to blood, the following tissues were collected: brain, eyeballs, heart, liver, lung, skeletal muscle (quadriceps), fat, kidneys, stomach, skin, small intestine, spleen, thyroid, lymph nodes, and testes or ovaries. At the end of the collection period animals were euthanized by CO2 asphyxiation and the carcasses were discarded. Additional animals were bled to obtain control blood/plasma and tissues.

Structure (SMILES): CC[C@H](C)[C@H]1NC(=O)[C@@H](NC(=O)[C@@H](CC(C)C)N(C)C(=O)[C@@H]2CCCN2C(=O)C(C)=O)[C@@H](C)OC(=O)[C@H](Cc2ccc(OC)cc2)N(C)C(=O)[C@@H]2CCCN2C(=O)[C@H](CC(C)C)NC(=O)[C@@H](C)C(=O)[C@H](C(C)C)OC(=O)C[C@@H]1O [Plitidepsin] (Pyruvoyl-P[dNMeL]T[X1]LP[NMeY](Me); ester 3-C)
- lung-to-plasma area under the curve ratio (LPR): ~543 fold
